Data published in paper PMC6555848 (2019).

Legend:
[1] = target: T1, full-length STAT5B^N642H (human, UniProt P51692 1-787, N642H); assay: SPR; two-state model
[2] = target: T1, full-length STAT5B^N642H; assay: SPR; two-state model, kd1

- Kd [1]: 350 nM
- koff [2]: 0.25 s⁻¹
B1: His-tagged ABL1 kinase (enzyme)
chain: MLEICLKLVGCKSKKGLSSSSSCYLEEALQRPVASDFEPQGLSEAARWNSKENLLAGPSE[in this place about 60 residues]LEKHSWYHGPVSRNAAEYLLSSGINGSFLVRESESSPGQRSISLRYEGRVYHYRINTASDGKLYVSSESRFNTLAELVHHHSTVADGLITTLHYPAPKRNKPTVYGVSPNYDKWEMERTDITMKHKLGGGQYGEVYEGVWKKYSLTVAVKTLKEDTMEVEEFLKEAAVMKEIKHPNLVQLLGVCTREPPFYIITEFMTYGNLLDYLRECNRQEVNAVVLLYMATQISSAMEYLEKKNFIHRDLAARNCLVGENHLVKVADFGLSRLMTGDTYTAHAGAKFPIKWTAPESLAYNKFSIKSDVWAFGVLLWEIATYGMSPYPGIDLSQVYELLEKDYRMERPEGCPEKVYELMRACWQWNPSDRPSFAEIHQAFETMFQESSISDEVEKELGKQGVRGAVSTLLQAPELPTKTRTSRRAAEHRDTTDVPEMPHSKGQGESDPLDHEPAVSPLLPRKERGPPEGGLNEDERLLPKDKKTNLFSALIKKKKKTAPTPPKRSSSFREMDGQPERRGAGEEEGRDISNGALAFTPLDTADPAKSPKPSNGAGVPNGALRESGGSGFRSPHLWKKSSTLTSSRLATGEEEGGGSSSKRFLRSCSASCVPHGAKDTEWRSVTLPRDLQSTGRQFDSSTFGGHKSEKPALPRKRAGENRSDQVTRGTVTPPPRLVKKNEEAADEVFKDIMESSPGSSPPNLTPKPLRRQVTVAPASGLPHKEEAGKGSALGTPAAAEPVTPTSKAGSGAPGGTSKGPAEESRVRRHKHSSESPGRDKGKLSRLKPAPPPPPAASAGKAGGKPSQSPSQEAAGEAVLGAKTKATSLVDAVNSDAAKPSQPGEGLKKPVLPATPKPQSAKPSGTPISPAPVPSTLPSASSALAGDQPSSTAFIPLISTRVSLRKTRQPPERIASGAITKGVVLDSTEALCLAISRNSEQMASHSAVLEAGKNLYTFCVSYVDSIQQMRNKFAFREAINKLENNLRELQICPATAGSGPAATQDFSKLLSSVKEISDIVQR
